{
  "source": "the supplement of paper PMC8728848",
  "binders": {"B1": {"name": "CBM40 CPF071 (Clostridium perfringens) (protein)", "chain": "MAHHHHHHVGTGSNDDDDKSPDPMLSSLGEYKDINLESSNASNITYDLEKYKNLDEGTIVVRFNSKDSKIQSLLGISNSKTKNGYFNFYVTNSRVGFELRNQKNEGNTQNGTENLVHMYKDVALNDGDNTVALKIEKNKGYKLFLNGKMIKEVKDTNTKFLNNIENLDSAFIGKTNRYGQSNEYNFKGNIGFMNIYNEPLGDDYLLSKTGETK"}},
  "experiment_in_all_cases": "glycan array binding signal (z-score within array); higher = stronger binding",
  "conditions_in_all_cases": "glycan notation: IUPAC condensed, linker removed",
  "key": {"[1]": {"molecular_target": "GlcNAc(b1-4)GlcNAc(b1-4)GlcNAc(b1-4)GlcNAc(b1-4)GlcNAc(b1-4)GlcNAc", "outline": "(§1)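 The Consortium for Functional Glycomics database supplied 3228 glycan arrays, of which those lacking an available protein sequence were dropped. The binding signal, a within-array Z-score, was averaged across arrays of the same protein sequence and across linkers. Negative scores can be read as non-binding.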"}, "[2]": {"molecular_target": "GlcNAc(b1-4)[GlcNAc(b1-6)]GalNAc", "outline": "as §1"}, "[3]": {"molecular_target": "GlcNAc(b1-6)Gal(b1-4)GlcNAc", "outline": "as §1"}, "GlcNAc(b1-6)GalNAc": {"molecular_target": "GlcNAc(b1-6)GalNAc", "outline": "as §1"}, "[4]": {"molecular_target": "GlcNAc6S(b1-3)Gal(b1-4)GlcNAc", "outline": "as §1"}, "Kdn(a2-3)Gal(b1-3)GalNAc": {"molecular_target": "Kdn(a2-3)Gal(b1-3)GalNAc", "outline": "as §1"}, "Kdn(a2-3)Gal(b1-3)GlcNAc": {"molecular_target": "Kdn(a2-3)Gal(b1-3)GlcNAc", "outline": "as §1"}, "Kdn(a2-3)Gal(b1-4)Glc": {"molecular_target": "Kdn(a2-3)Gal(b1-4)Glc", "outline": "as §1"}, "Kdn(a2-3)Gal(b1-4)GlcNAc": {"molecular_target": "Kdn(a2-3)Gal(b1-4)GlcNAc", "outline": "as §1"}, "[5]": {"molecular_target": "Kdn(a2-3)Gal(b1-4)[Fuc(a1-3)]GlcNAc", "outline": "as §1"}, "Kdn(a2-6)Gal(b1-4)GlcNAc": {"molecular_target": "Kdn(a2-6)Gal(b1-4)GlcNAc", "outline": "as §1"}, "[6]": {"molecular_target": "Man(a1-2)Man(a1-2)Man(a1-3)Man", "outline": "as §1"}, "[7]": {"molecular_target": "Man(a1-2)Man(a1-2)Man(a1-6)[Man(a1-3)]Man", "outline": "as §1"}, "Man(a1-2)Man(a1-3)Man": {"molecular_target": "Man(a1-2)Man(a1-3)Man", "outline": "as §1"}, "[8]": {"molecular_target": "Man(a1-2)Man(a1-3)[Man(a1-2)Man(a1-6)]Man", "outline": "as §1"}, "[9]": {"molecular_target": "Man(a1-2)Man(a1-3)[Man(a1-2)Man(a1-6)]Man(a1-6)[Man(a1-2)Man(a1-2)Man(a1-3)]Man", "outline": "as §1"}, "[10]": {"molecular_target": "Man(a1-2)Man(a1-3)[Man(a1-2)Man(a1-6)]Man(a1-6)[Man(a1-2)Man(a1-2)Man(a1-3)]Man(b1-4)GlcNAc(b1-4)GlcNAc", "outline": "as §1"}, "[11]": {"molecular_target": "Man(a1-2)Man(a1-3)[Man(a1-6)]Man(a1-6)[Man(a1-2)Man(a1-3)]Man(b1-4)GlcNAc(b1-4)GlcNAc", "outline": "as §1"}, "[12]": {"molecular_target": "Man(a1-2)Man(a1-6)[Man(a1-3)]Man(a1-6)[Man(a1-2)Man(a1-2)Man(a1-3)]Man", "outline": "as §1"}, "[13]": {"molecular_target": "Man(a1-2)Man(a1-6)[Man(a1-3)]Man(a1-6)[Man(a1-2)Man(a1-2)Man(a1-3)]Man(b1-4)GlcNAc(b1-4)GlcNAc", "outline": "as §1"}, "Man(a1-3)[Man(a1-6)]Man": {"molecular_target": "Man(a1-3)[Man(a1-6)]Man", "outline": "as §1"}, "[14]": {"molecular_target": "Man(a1-3)[Man(a1-6)]Man(a1-6)[Man(a1-2)Man(a1-3)]Man(b1-4)GlcNAc(b1-4)GlcNAc", "outline": "as §1"}, "[15]": {"molecular_target": "Man(a1-3)[Man(a1-6)]Man(a1-6)[Man(a1-3)]Man", "outline": "as §1"}, "[16]": {"molecular_target": "Man(a1-3)[Man(a1-6)]Man(a1-6)[Man(a1-3)]Man(b1-4)GlcNAc(b1-4)GlcNAc", "outline": "as §1"}, "[17]": {"molecular_target": "Man(a1-3)[Man(a1-6)]Man(b1-4)GlcNAc(b1-4)GlcNAc", "outline": "as §1"}, "[18]": {"molecular_target": "Man(a1-3)[Man(a1-6)]Man(b1-4)GlcNAc(b1-4)[Fuc(a1-6)]GlcNAc", "outline": "as §1"}, "Man(a1-6)Man": {"molecular_target": "Man(a1-6)Man", "outline": "as §1"}, "Man(b1-4)GlcNAc": {"molecular_target": "Man(b1-4)GlcNAc", "outline": "as §1"}, "MurNAc(b1-4)GlcNAc": {"molecular_target": "MurNAc(b1-4)GlcNAc", "outline": "as §1"}, "Neu5Ac(a2-3)Gal": {"molecular_target": "Neu5Ac(a2-3)Gal", "outline": "as §1"}, "[19]": {"molecular_target": "Neu5Ac(a2-3)Gal(b1-3)GalNAc", "outline": "as §1"}, "[20]": {"molecular_target": "Neu5Ac(a2-3)Gal(b1-3)GalNAc(b1-3)Gal(a1-4)Gal(b1-4)Glc", "outline": "as §1"}, "[21]": {"molecular_target": "Neu5Ac(a2-3)Gal(b1-3)GalNAc(b1-4)Gal(b1-4)Glc", "outline": "as §1"}, "[22]": {"molecular_target": "Neu5Ac(a2-3)Gal(b1-3)GalNAc(b1-4)[Neu5Ac(a2-3)]Gal(b1-4)Glc", "outline": "as §1"}, "[23]": {"molecular_target": "Neu5Ac(a2-3)Gal(b1-3)GalNAc(b1-4)[Neu5Ac(a2-8)Neu5Ac(a2-3)]Gal(b1-4)Glc", "outline": "as §1"}, "[24]": {"molecular_target": "Neu5Ac(a2-3)Gal(b1-3)GalNAc6S", "outline": "as §1"}, "[25]": {"molecular_target": "Neu5Ac(a2-3)Gal(b1-3)GlcNAc", "outline": "as §1"}, "[26]": {"molecular_target": "Neu5Ac(a2-3)Gal(b1-3)GlcNAc(b1-2)Man", "outline": "as §1"}, "[27]": {"molecular_target": "Neu5Ac(a2-3)Gal(b1-3)GlcNAc(b1-2)Man(a1-3)[GlcNAc(b1-4)][Neu5Ac(a2-3)Gal(b1-3)GlcNAc(b1-2)Man(a1-6)]Man(b1-4)GlcNAc(b1-4)GlcNAc", "outline": "as §1"}, "[28]": {"molecular_target": "Neu5Ac(a2-3)Gal(b1-3)GlcNAc(b1-2)Man(a1-3)[Neu5Ac(a2-3)Gal(b1-3)GlcNAc(b1-2)Man(a1-6)]Man(b1-4)GlcNAc(b1-4)GlcNAc", "outline": "as §1"}, "[29]": {"molecular_target": "Neu5Ac(a2-3)Gal(b1-3)GlcNAc(b1-2)[Neu5Ac(a2-3)Gal(b1-3)GlcNAc(b1-4)]Man(a1-6)[Neu5Ac(a2-3)Gal(b1-3)GlcNAc(b1-2)Man(a1-3)]Man(b1-4)GlcNAc(b1-4)GlcNAc", "outline": "as §1"}, "[30]": {"molecular_target": "Neu5Ac(a2-3)Gal(b1-3)GlcNAc(b1-3)Gal(b1-3)GlcNAc", "outline": "as §1"}, "[31]": {"molecular_target": "Neu5Ac(a2-3)Gal(b1-3)GlcNAc(b1-3)Gal(b1-4)GlcNAc", "outline": "as §1"}, "[32]": {"molecular_target": "Neu5Ac(a2-3)Gal(b1-3)GlcNAc(b1-3)GalNAc", "outline": "as §1"}, "[33]": {"molecular_target": "Neu5Ac(a2-3)Gal(b1-3)GlcNAc(b1-6)GalNAc", "outline": "as §1"}},
  "note": "This is one part of the list.",
  "data": [
    {"binder": "B1", "values": [
      {"measurement": "glycan array binding signal (z-score)", "setting": "[1]", "value": -0.098},
      {"measurement": "glycan array binding signal (z-score)", "setting": "[2]", "value": 0.426},
      {"measurement": "glycan array binding signal (z-score)", "setting": "[3]", "value": -0.449},
      {"measurement": "glycan array binding signal (z-score)", "setting": "GlcNAc(b1-6)GalNAc", "value": -0.334},
      {"measurement": "glycan array binding signal (z-score)", "setting": "[4]", "value": 0.527},
      {"measurement": "glycan array binding signal (z-score)", "setting": "Kdn(a2-3)Gal(b1-3)GalNAc", "value": -0.605},
      {"measurement": "glycan array binding signal (z-score)", "setting": "Kdn(a2-3)Gal(b1-3)GlcNAc", "value": -0.464},
      {"measurement": "glycan array binding signal (z-score)", "setting": "Kdn(a2-3)Gal(b1-4)Glc", "value": -0.105},
      {"measurement": "glycan array binding signal (z-score)", "setting": "Kdn(a2-3)Gal(b1-4)GlcNAc", "value": -0.456},
      {"measurement": "glycan array binding signal (z-score)", "setting": "[5]", "value": -0.267},
      {"measurement": "glycan array binding signal (z-score)", "setting": "Kdn(a2-6)Gal(b1-4)GlcNAc", "value": -0.181},
      {"measurement": "glycan array binding signal (z-score)", "setting": "[6]", "value": -0.106},
      {"measurement": "glycan array binding signal (z-score)", "setting": "[7]", "value": -0.062},
      {"measurement": "glycan array binding signal (z-score)", "setting": "Man(a1-2)Man(a1-3)Man", "value": 0.099},
      {"measurement": "glycan array binding signal (z-score)", "setting": "[8]", "value": -0.436},
      {"measurement": "glycan array binding signal (z-score)", "setting": "[9]", "value": -0.316},
      {"measurement": "glycan array binding signal (z-score)", "setting": "[10]", "value": -0.148},
      {"measurement": "glycan array binding signal (z-score)", "setting": "[11]", "value": -0.527},
      {"measurement": "glycan array binding signal (z-score)", "setting": "[12]", "value": -0.657},
      {"measurement": "glycan array binding signal (z-score)", "setting": "[13]", "value": -0.368},
      {"measurement": "glycan array binding signal (z-score)", "setting": "Man(a1-3)[Man(a1-6)]Man", "value": -0.488},
      {"measurement": "glycan array binding signal (z-score)", "setting": "[14]", "value": -0.481},
      {"measurement": "glycan array binding signal (z-score)", "setting": "[15]", "value": -0.282},
      {"measurement": "glycan array binding signal (z-score)", "setting": "[16]", "value": 0.051},
      {"measurement": "glycan array binding signal (z-score)", "setting": "[17]", "value": -0.376},
      {"measurement": "glycan array binding signal (z-score)", "setting": "[18]", "value": 0.052},
      {"measurement": "glycan array binding signal (z-score)", "setting": "Man(a1-6)Man", "value": -0.423},
      {"measurement": "glycan array binding signal (z-score)", "setting": "Man(b1-4)GlcNAc", "value": -0.187},
      {"measurement": "glycan array binding signal (z-score)", "setting": "MurNAc(b1-4)GlcNAc", "value": 0.15},
      {"measurement": "glycan array binding signal (z-score)", "setting": "Neu5Ac(a2-3)Gal", "value": 0.159},
      {"measurement": "glycan array binding signal (z-score)", "setting": "[19]", "value": -0.019},
      {"measurement": "glycan array binding signal (z-score)", "setting": "[20]", "value": -0.106},
      {"measurement": "glycan array binding signal (z-score)", "setting": "[21]", "value": 0.298},
      {"measurement": "glycan array binding signal (z-score)", "setting": "[22]", "value": 0.789},
      {"measurement": "glycan array binding signal (z-score)", "setting": "[23]", "value": -0.469},
      {"measurement": "glycan array binding signal (z-score)", "setting": "[24]", "value": 1.2},
      {"measurement": "glycan array binding signal (z-score)", "setting": "[25]", "value": 0.994},
      {"measurement": "glycan array binding signal (z-score)", "setting": "[26]", "value": -0.238},
      {"measurement": "glycan array binding signal (z-score)", "setting": "[27]", "value": -0.468},
      {"measurement": "glycan array binding signal (z-score)", "setting": "[28]", "value": -0.391},
      {"measurement": "glycan array binding signal (z-score)", "setting": "[29]", "value": 2.77},
      {"measurement": "glycan array binding signal (z-score)", "setting": "[30]", "value": -0.044},
      {"measurement": "glycan array binding signal (z-score)", "setting": "[31]", "value": -0.328},
      {"measurement": "glycan array binding signal (z-score)", "setting": "[32]", "value": 0.544},
      {"measurement": "glycan array binding signal (z-score)", "setting": "[33]", "value": 0.533}
    ]}
  ]
}
